Experimental data as given in the supplement of paper PMC4723716.
± gives the uncertainty stated by the source. The full ranking holds about 9,900 compounds; the median of “viability index relative to DMSO control” is about 1, and the lowest 2% start at about 0.85. The list shows a part of the results.

tested on: Plasmodium falciparum NF54 stage V gametocytes; assay: viability index relative to DMSO control (fraction); higher = less gametocyte killing; conditions: 2.5 µM, library set: Broad Institute DOS, incubation time: 72 h
How it was run: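 P. falciparum NF54 stage V gametocytes (serum-free medium, 0.75% gametocytemia, 1.25% hematocrit) were exposed to compound at 2.5 µM for 72 hr at 37°C under low oxygen, then stained with MitoTracker Red CMXRos and saponin for one to two hours. Red particles of 20–70 µm2 in one field per well were counted, and the viability index is that count scaled to the plate mean of solvent-only wells.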

Compound | viability index
COC(=O)c1ccc(CN2CC(=O)N3[C@@H](CO)[C@H](c4ccc(-c5cccnc5)cc4)[C@@H]3C2)cc1 | 1 ± 0.012
O=C(C[C@@H]1CC[C@H](NC(=O)c2ccc3c(c2)OCO3)[C@H](CO)O1)NCc1ccc(Oc2ccccc2)cc1 | 1.08 ± 0.19
COc1cccc(-c2ccccc2[C@@H]2[C@H](C#N)N(C(=O)c3ccccn3)[C@H]2CO)c1 | 1.1 ± 0.072
N#Cc1ccc(-c2ccc([C@@H]3[C@@H]4CN(S(=O)(=O)c5ccc(F)cc5)C[C@H]3N4)cc2)cc1 | 1.02 ± 0.061
C[C@H](CO)N1C[C@H](C)[C@H](CN(C)CC2CCCCC2)OCCCC[C@H](C)Oc2ccc(NS(C)(=O)=O)cc2C1=O | 1.05 ± 0.086
CCN(C[C@H]1[C@H](c2ccccc2)[C@H](CO)N1C(=O)COC)S(C)(=O)=O | 1.03 ± 0.04
C[C@@H]1CN([C@H](C)CO)C(=O)c2c(c3ccccc3n2C)-c2ccccc2CO[C@H]1CN(C)C | 1 ± 0.023
C[C@@H]1CN([C@H](C)CO)C(=O)CCCn2nncc2CO[C@@H]1CN(C)Cc1ccccc1C(=O)O | 1.08 ± 0.055
CCS(=O)(=O)N1[C@H](C#N)[C@H](c2ccc(-c3cccc(F)c3)cc2)[C@@H]1CO | 0.946 ± 0.011
O=C(C[C@@H]1C=C[C@H](NC(=O)C2CCOCC2)[C@@H](CO)O1)NCCc1cscn1 | 1.11 ± 0.096
C[C@H](CO)N1C[C@H](C)[C@@H](CN(C)Cc2ccc3c(c2)OCO3)Oc2c(NC(=O)c3ccncc3)cccc2C1=O | 1.09 ± 0.06
O=C(C[C@H]1C[C@H]2c3cc(NC(=O)C4CCC4)ccc3O[C@H]2[C@@H](CO)O1)NC1CCCC1 | 1.002 ± 0.0073
N#C[C@@H]1[C@H](c2ccccc2-c2cccc(F)c2)[C@@H](CO)N1C(=O)c1cccnc1 | 1.09 ± 0.063
CCC(=O)N1CC[C@H]2[C@@H]1c1cc(C#Cc3ccccc3OC)ccc1N(C)[C@H]2CO | 1.06 ± 0.034
COc1ccc(CNC(=O)C[C@@H]2CC[C@H](NC(=O)CN(C)C)[C@H](CO)O2)cc1 | 0.971 ± 0.062
CCCNC(=O)N1C[C@@H]2[C@H](c3ccccc31)[C@H](CO)N2Cc1cccc(OC)c1 | 0.995 ± 0.041
COCC(=O)Nc1ccc2c(c1)[C@@H]1C[C@@H](CC(=O)N[C@H](C)c3ccccc3)O[C@H](CO)[C@@H]1O2 | 1.02 ± 0.026
CO[C@@H]1CN(C)C(=O)c2cc(NC(=O)C3CCCCC3)ccc2OC[C@@H](C)N(Cc2cccnc2)C[C@H]1C | 1.132 ± 0.0091
O=C(CC1CC1)N1[C@@H](CO)[C@@H](c2ccccc2)C12CN(Cc1ccccc1)C2 | 1.06 ± 0.063
C[C@H](CO)N1C[C@H](C)[C@H](CN(C)S(C)(=O)=O)Oc2c(NC(=O)Nc3ccc4c(c3)OCO4)cccc2C1=O | 1.03 ± 0.11
N#C[C@H]1[C@@H](c2ccccc2)[C@@H](CO)N1C(=O)c1ccc2c(c1)OCO2 | 1.08 ± 0.022
COc1cccc(NC(=O)N[C@H]2CC[C@H](CC(=O)N3CCN(C)CC3)O[C@H]2CO)c1 | 1.136 ± 0.0081
CNC[C@@H]1Oc2ccc(N)cc2CC(=O)N([C@H](C)CO)C[C@H]1C | 0.954 ± 0.011
CCC(=O)N1[C@@H](CO)[C@@H](c2ccccc2)[C@@H]1CN(CC)C(=O)c1cccc(F)c1 | 1.04 ± 0.018

Compound | viability index
COc1cccc(NC(=O)N2CC3(C2)[C@@H](c2ccccc2)[C@H](CO)N3C(C)=O)c1 | 1.07 ± 0.028
O=C(C[C@@H]1CC[C@H]2NC[C@H](O)COC[C@@H]2O1)NC1Cc2ccccc2C1 | 1.03 ± 0.019
N#C[C@H]1[C@H](c2ccccc2C2=CCCCC2)[C@@H](CO)N1C(=O)CN1CCOCC1 | 1.05 ± 0.2
CO[C@@H](CN(C)Cc1ccc2c(c1)OCO2)[C@@H](C)CN(C(=O)c1ccccc1)[C@@H](C)CO | 1.059 ± 0.0076
COc1ccc(NC(=O)N(C)C[C@@H]2Oc3ccc(NC(=O)CCN4CCOCC4)cc3C(=O)N([C@H](C)CO)C[C@@H]2C)cc1 | 1.08 ± 0.1
CCCC(=O)Nc1ccc2c(c1)OC[C@H](C)N(CC1CCOCC1)C[C@@H](C)[C@H](OC)CN(C)C2=O | 1.02 ± 0.039
CO[C@@H]1CN(C)C(=O)c2ccc(NC(=O)Nc3ccccc3F)cc2OC[C@@H](C)N(CC2CC2)C[C@H]1C | 0.948 ± 0.086
COCC#Cc1ccc([C@H]2[C@@H](CO)N3CCCCN(Cc4cccnc4)C[C@@H]23)cc1 | 1.05 ± 0.1
CN1C(=O)c2cc(NS(=O)(=O)CC(F)(F)F)ccc2OC[C@H]2O[C@@H](CC(=O)Nc3cccc(F)c3)CC[C@@H]21 | 1.16 ± 0.071
COc1ccc(NC(=O)N(C)C[C@H]2OCc3ccccc3-c3ccccc3C(=O)N([C@@H](C)CO)C[C@@H]2C)c(OC)c1 | 1.09 ± 0.092
CCS(=O)(=O)N1C[C@@]2(C1)CN([C@@H](CO)c1[nH]c3cc(OC)ccc3c21)C(=O)Cc1ccccn1 | 0.9811 ± 0.0084
Cc1noc(C)c1NC(=O)N(C)C[C@@H]1Oc2ccc(NC(=O)Cc3cn(C)c4ccccc34)cc2CC(=O)N([C@@H](C)CO)C[C@H]1C | 0.979 ± 0.024
COc1ccc2c3c([C@@H](CO)N(CC4CC4)C[C@]33CN(C3)C(=O)Nc3ccc(F)cc3F)n(C)c2c1 | 0.988 ± 0.11
CN1C(=O)c2cc(NC(=O)C3CCOCC3)ccc2OC[C@@H]2O[C@@H](CC(=O)NCCc3ccncc3)CC[C@H]21 | 1.12 ± 0.13
CO[C@H](CN(C)S(=O)(=O)c1cccc(Cl)c1)[C@H](C)CN(C(=O)Nc1ccccc1F)[C@@H](C)CO | 1.07 ± 0.064
Cc1noc(C)c1S(=O)(=O)Nc1ccc2c(c1)C(=O)N([C@@H](C)CO)C[C@H](C)[C@@H](CN(C)C(=O)NC1CCCCC1)O2 | 1.08 ± 0.04
CN1C(=O)c2cc(NC(=O)C3CCOCC3)ccc2OC[C@H]2O[C@@H](CC(=O)NCCc3ccncc3)CC[C@H]21 | 1.146 ± 0.01
COc1ccc(S(=O)(=O)N(C)C[C@H]2Oc3c(NC(=O)c4nc5ccccc5s4)cccc3C(=O)N([C@@H](C)CO)C[C@@H]2C)cc1 | 0.9919 ± 0.0082
CCCNC(=O)Nc1ccc2c(c1)OC[C@@H](C)N(C(=O)C1CCOCC1)C[C@@H](C)[C@@H](OC)CN(C)C2=O | 1.075 ± 0.0076
CCC(=O)N1[C@H](CN(CC)C(=O)c2cccc(F)c2)[C@@H](c2ccccc2)[C@@H]1CO | 1.09 ± 0.031
CCCNC(=O)C[C@@H]1CC[C@@H]2[C@H](COC[C@H](O)CN2C(=O)c2ccc(F)cc2)O1 | 1.03 ± 0.1
COc1ccc(C#Cc2ccc([C@H]3[C@H](CO)N4C(=O)CN(C(=O)NC(C)C)C[C@@H]34)cc2)cc1 | 1.087 ± 0.0045
C[C@H](CO)N1C[C@H](C)[C@H](CN(C)Cc2ccncc2)OCCCC[C@H](C)Oc2ccc(NS(=O)(=O)c3ccc(Cl)cc3)cc2C1=O | 1.04 ± 0.073
COCC#Cc1ccc([C@H]2[C@@H](CO)N3C(=O)CN(C(=O)Nc4ccccc4F)C[C@H]23)cc1 | 1.008 ± 0.0016

Compound | viability index
N#Cc1cccc(-c2ccc([C@H]3[C@@H]4CNC[C@H]3N4)cc2)c1 | 1.01 ± 0.057
CO[C@@H](CN(C)C(=O)Nc1ccc(Cl)cc1)[C@H](C)CN(Cc1ccccc1Cl)[C@H](C)CO | 1.07 ± 0.085
O=C(C[C@@H]1C=C[C@@H](NC(=O)c2ccncc2)[C@H](CO)O1)NCC1CC1 | 1.09 ± 0.067
C[C@H]1CN([C@@H](C)CO)C(=O)c2ccccc2-c2ccccc2CO[C@H]1CN(C)C(=O)c1cc(Cl)cc(Cl)c1 | 0.884 ± 0.0063
CNC[C@H]1OCCCC[C@@H](C)Oc2ccc(NC(=O)Nc3ccc(OC)cc3)cc2C(=O)N([C@@H](C)CO)C[C@H]1C | 1.05 ± 0.023
N#C[C@H]1[C@H](c2ccc(C#Cc3ccccc3F)cc2)[C@@H](CO)N1C(=O)c1cccnc1 | 1.02 ± 0.033
CN1C(=O)c2cc(NS(=O)(=O)c3ccccc3F)ccc2OC[C@@H]2O[C@@H](CC(=O)NC3Cc4ccccc4C3)CC[C@H]21 | 1.09 ± 0.025
C[C@@H]1CN([C@@H](C)CO)C(=O)c2cc(N(C)C)ccc2O[C@@H](C)CCCCO[C@@H]1CN(C)Cc1ccc(C(=O)O)cc1 | 1.1 ± 0.099
CO[C@H]1CN(C)C(=O)c2cc(NC(=O)NC(C)C)ccc2OC[C@@H](C)N(C(=O)CN(C)C)C[C@H]1C | 1.03 ± 0.043
C(=C\c1ccc([C@@H]2[C@@H]3CN(Cc4cocn4)C[C@H]2N3)cc1)/c1ccccc1 | 0.889 ± 0.012
COc1ccc([C@@H]2C/C=C/C[C@@H](C)Oc3ccccc3C(=O)N(C)[C@H](C(C)C)C(=O)N2)c(OC)c1.COc1ccc([C@@H]2C/C=C\C[C@@H](C)Oc3ccccc3C(=O)N(C)[C@H](C(C)C)C(=O)N2)c(OC)c1 | 1.06 ± 0.033
COc1ccc(-c2ccc([C@@H]3[C@@H](CO)N4C(=O)CN(C(=O)C5CC5)C[C@@H]34)cc2)cc1 | 1.01 ± 0.013
O=C1CCC(=O)NCC/C=C/CCN1 | 1.09 ± 0.052
Cc1noc(C)c1S(=O)(=O)N(C)C[C@H]1OCCCC[C@@H](C)Oc2ccc(N(C)C)cc2C(=O)N([C@H](C)CO)C[C@@H]1C | 1.02 ± 0.029
C[C@@H]1CCCCO[C@H](CN(C)C(=O)Nc2cccc3ccccc23)[C@@H](C)CN([C@H](C)CO)C(=O)c2cc(NC(=O)CCC(F)(F)F)ccc2O1 | 1.03 ± 0.025
C/C=C/c1ccc([C@@H]2[C@H](CO)N(CC3CCOCC3)C23CN(C(=O)COC)C3)cc1 | 1.08 ± 0.027
C[C@@H]1CN([C@@H](C)CO)C(=O)c2cc(NS(=O)(=O)c3ccccc3)ccc2O[C@@H](C)CCCCO[C@H]1CN(C)C(=O)C1CCCCC1 | 1.06 ± 0.021
N#C[C@H]1[C@H](c2ccccc2-c2ccccc2F)[C@@H](CO)N1C(=O)Cc1ccccc1 | 1.06 ± 0.049
COc1ccccc1S(=O)(=O)N1C[C@@H]2N[C@H](C1)[C@@H]2c1ccc(-c2cccnc2)cc1 | 1.05 ± 0.057
COc1ccc(-c2ccc([C@H]3[C@@H]4CN(C(=O)c5ccc(F)cc5)C[C@H]3N4)cc2)cc1 | 1.058 ± 0.0098
C[C@@H]1CC(=O)NCC/C=C\C[C@@H](c2cccc(Cl)c2)NC1=O | 1.059 ± 0.01
COc1ccc2c3c([C@@H](CO)N(C[C@]33CN(C3)C(=O)NC(C)C)C(=O)CC3CC3)n(C)c2c1 | 0.904 ± 0.037
CO[C@H]1CN(C)C(=O)c2cc(NS(C)(=O)=O)ccc2OC[C@@H](C)N(C(=O)C2CCOCC2)C[C@H]1C | 1.08 ± 0.044
